From the BET-seq Pho4 binding data (Le et al. 2018) come the findings set out here.

The other results are listed elsewhere or left out. Values were computed here from the reads of four pooled replicates and scatter widely.

The target in the test is T1, Pho4 (S. cerevisiae) (UniProt P07270).
T1 sequence: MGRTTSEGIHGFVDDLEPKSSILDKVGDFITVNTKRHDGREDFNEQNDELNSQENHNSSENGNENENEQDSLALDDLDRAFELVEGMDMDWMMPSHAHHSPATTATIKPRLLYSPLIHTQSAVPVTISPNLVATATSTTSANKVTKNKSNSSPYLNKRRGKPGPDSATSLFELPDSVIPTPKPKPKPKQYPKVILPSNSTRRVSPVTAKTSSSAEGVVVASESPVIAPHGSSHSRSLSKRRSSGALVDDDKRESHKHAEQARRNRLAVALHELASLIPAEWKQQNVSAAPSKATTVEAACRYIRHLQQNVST
Description: relative binding free energy (BET-seq); higher = weaker binding. To be noted: reference: library average.
For the sequence CTAGACACGTGGAGTT, the “relative binding free energy” value amounted to 0.08 kcal/mol.
With TGTGTCACGTGTAGAG the figure was 0.04 kcal/mol; with GGGGGCACGTGCATTT, 0.01 kcal/mol.
With ATTTTCACGTGATTGT the figure was 0.33 kcal/mol; with AAATCCACGTGTTGGT, 0.08 kcal/mol; with CCTAGCACGTGGGGGT, -0.22 kcal/mol.
The result for TGTGTCACGTGGATAG reads 0.12 kcal/mol.
For the sequence CTAGTCACGTGAAGTT, the “relative binding free energy” value turned out to be 0.31 kcal/mol.
With GAGTGCACGTGTGAAA, the “relative binding free energy” value is 0.25 kcal/mol.
With TTTAACACGTGTTCTG the figure was -0.02 kcal/mol; with GCAGTCACGTGAGTGT, 0.2 kcal/mol.
With TATGGCACGTGCGGTA the figure was -0.17 kcal/mol.
Take TATCGCACGTGTGGGA: the “relative binding free energy” value came to 0.08 kcal/mol.
The result for TGTGTCACGTGAATTT reads 0.3 kcal/mol; that for AAAGTCACGTGTTTGA, 0 kcal/mol.
With AATGGCACGTGATGTA the figure was -0.02 kcal/mol; with TGGTTCACGTGTTGGA, 0.38 kcal/mol.
With GGGATCACGTGGAAGG the figure was 0.13 kcal/mol.
Consider TGAAACACGTGTAATG, for which the “relative binding free energy” value was found to be 0.16 kcal/mol.
With GTCAGCACGTGGGGTA the figure was -0.33 kcal/mol; with GGACTCACGTGGTAGG, 0.19 kcal/mol; with AAGGGCACGTGATGAT, -0.05 kcal/mol.
The result for AGAGGCACGTGGAATT reads -0.03 kcal/mol.
With ATATGCACGTGTGACT the figure was 0.05 kcal/mol; with TACAACACGTGGGGGT, -0.09 kcal/mol; with CTCAGCACGTGAGGGG, 0.01 kcal/mol.
Turning to TTGTTCACGTGGGGTT, the “relative binding free energy” value was 0.16 kcal/mol.
With TGGGACACGTGAGTAA the figure was 0.12 kcal/mol.
As for GCATGCACGTGATTTG, the “relative binding free energy” value was 0.24 kcal/mol.
TTCTTCACGTGTGGTG: the “relative binding free energy” value was 0.29 kcal/mol.
The result for ATTGCCACGTGTCGGT reads -0.02 kcal/mol.
The result for GATTTCACGTGAGATA reads 0.41 kcal/mol.
With CGCTTCACGTGGGGGC the figure was 0.06 kcal/mol.
Turning to TGTAGCACGTGGGGGC, the “relative binding free energy” value is -0.12 kcal/mol.
On to GATTACACGTGTTAGT, for which the “relative binding free energy” value was determined as 0.15 kcal/mol.
With CCTGGCACGTGGTAGT the figure was -0.17 kcal/mol; with AGAATCACGTGTTGTA, 0.06 kcal/mol; with TACTTCACGTGTGGGT, 0.27 kcal/mol.
With TTTTGCACGTGGAGAG the figure was 0.04 kcal/mol; with AATTGCACGTGTTGAT, 0.16 kcal/mol.
The result for GCTTACACGTGAGGTG reads 0.43 kcal/mol.
With GATTTCACGTGAGGCG, the “relative binding free energy” value came out at 0.6 kcal/mol.
With GTTCACACGTGGGGTG, the “relative binding free energy” value was -0.01 kcal/mol.
Take GTGAACACGTGGAAGG: the “relative binding free energy” value amounted to 0.04 kcal/mol.
With ATCAGCACGTGGGGCG, the “relative binding free energy” value was -0.14 kcal/mol.
With AGTTTCACGTGGTACT the figure was 0.15 kcal/mol; with TTGTTCACGTGAGTCG, 0.18 kcal/mol; with GTTGCCACGTGGGTTG, -0.11 kcal/mol.
For TCTTGCACGTGTGAAT, the “relative binding free energy” value came to 0.13 kcal/mol.
With GTTTTCACGTGGGGCC the figure was 0.27 kcal/mol.
The result for TGCATCACGTGTATAG reads 0.27 kcal/mol; that for GTGGTCACGTGTGATG, 0.2 kcal/mol; that for AGCATCACGTGCGTGG, 0.08 kcal/mol.
The result for TTGGTCACGTGTAGAA reads 0.18 kcal/mol; that for AGGGCCACGTGGTTTG, -0.09 kcal/mol; that for GTATTCACGTGAGGTT, 0.41 kcal/mol.
Turning to TAGGGCACGTGTTGTG, the “relative binding free energy” value was -0.09 kcal/mol.
With TGGTACACGTGATGTA the figure was 0.13 kcal/mol; with TTTCTCACGTGGGAGA, 0.27 kcal/mol.
The result for ATAGTCACGTGGCTTA reads 0.03 kcal/mol; that for TAGTCCACGTGGTGGC, 0 kcal/mol.
The result for CGTAACACGTGTGGCG reads 0.07 kcal/mol; that for GTTCGCACGTGGTGAA, 0.06 kcal/mol; that for CTTTTCACGTGTATCG, 0.3 kcal/mol.
In the case of AAGGGCACGTGAGCAG, the “relative binding free energy” value came to 0.08 kcal/mol.
With CGTGTCACGTGTGCGT the figure was 0.09 kcal/mol; with CCGGTCACGTGTTTGG, 0.02 kcal/mol; with TGTATCACGTGTCAGA, 0.1 kcal/mol.
The result for GAATTCACGTGGCGGG reads 0.33 kcal/mol; that for GGTATCACGTGCAAGT, 0.16 kcal/mol.
Turning to TTACGCACGTGTTATA, the “relative binding free energy” value was -0.02 kcal/mol.
The result for GAGTGCACGTGCGGGC reads -0.06 kcal/mol.
The result for GGCTTCACGTGAGTTG reads 0.39 kcal/mol; that for GGGGTCACGTGGCTTC, 0.09 kcal/mol.
Take TTAAGCACGTGGATTA: the “relative binding free energy” value stood at 0.03 kcal/mol.
The result for TTTGCCACGTGGAGCG reads -0.06 kcal/mol; that for TTGGTCACGTGTATTA, 0.2 kcal/mol; that for GTATTCACGTGTTGGA, 0.4 kcal/mol.
With TCAAGCACGTGGGTTT the figure was -0.34 kcal/mol.
The result for TTGGGCACGTGTACAA reads 0.01 kcal/mol; that for TGGAGCACGTGGAGGA, -0.07 kcal/mol; that for TATTCCACGTGTTGGG, 0.18 kcal/mol.
Consider TTATTCACGTGATTAA, for which the “relative binding free energy” value is 0.09 kcal/mol.
With ATTGTCACGTGGGAAT the figure was 0.12 kcal/mol; with TGCTACACGTGATGGG, 0.05 kcal/mol; with GTGTACACGTGTCTGT, 0.02 kcal/mol.
With GAGTACACGTGGAGGT, the “relative binding free energy” value was found to be 0.17 kcal/mol.
With GACGTCACGTGGGTGT the figure was 0.07 kcal/mol.
With TTGTACACGTGTTCTA, the “relative binding free energy” value was -0.01 kcal/mol.
With TTGTTCACGTGATCGA the figure was 0.38 kcal/mol; with TTCTGCACGTGGTAAG, -0.03 kcal/mol.
On to GTTATCACGTGGGCCG, for which the “relative binding free energy” value is 0.06 kcal/mol.
The result for TTAAACACGTGAGGCT reads 0.29 kcal/mol.
With TGATTCACGTGTTCTG the figure was 0.2 kcal/mol.
Take TGGGGCACGTGGCTCT: the “relative binding free energy” value was -0.14 kcal/mol.
With GAATTCACGTGCGTTT the figure was 0.25 kcal/mol; with ACTAGCACGTGGGGGA, -0.16 kcal/mol; with TATTACACGTGTCGGG, 0.17 kcal/mol.
The result for ATGTTCACGTGATTAG reads 0.37 kcal/mol; that for AAATGCACGTGGGTCG, -0.18 kcal/mol; that for TGAGACACGTGAAGTA, 0.25 kcal/mol.
With CTATGCACGTGTGTGA, the “relative binding free energy” value came to 0 kcal/mol.
The result for TGACTCACGTGGGAGT reads -0.07 kcal/mol; that for CGGTGCACGTGGTAGT, -0.05 kcal/mol.
For the sequence CGAGTCACGTGGGTGT, the “relative binding free energy” value is -0.04 kcal/mol.
With TAGAGCACGTGCGGTT the figure was -0.01 kcal/mol.
With AATGTCACGTGTGTTG the figure was 0.14 kcal/mol.
With TGCGTCACGTGTTGTC the figure was 0.08 kcal/mol.
On to TGTATCACGTGGTGAG, for which the “relative binding free energy” value is -0.02 kcal/mol.
The result for GTTGGCACGTGCAGTG reads 0.04 kcal/mol; that for AAAACCACGTGGTGGG, -0.02 kcal/mol; that for GCTAGCACGTGGAGGA, 0.02 kcal/mol.
The result for TAATACACGTGGATTT reads 0 kcal/mol; that for ATTATCACGTGATTGG, 0.34 kcal/mol; that for GAGTGCACGTGTGTAA, 0.03 kcal/mol.
